Data reported in the supplement of paper PMC7826260.
Some of the results follow. Each Rep nickase domain was tested in vitro on the same pool of single strands for 1 h at 37 °C with 3 µM enzyme; only the middle of the 90-letter strands is printed. Uncut reads are compared with the no-enzyme pool on a log2 scale; the lower, the more was cut; hits are not called. Because reads are shares of a total, they shift together; uncut strands gain when others are lost, and binding without cutting may add a little.

Key:
Assay in all cases: uncleaved DNA left, log2 of reads against the no-enzyme library (log2 ratio); higher = less cleavage (more negative = more Rep cleavage of the k-mer); sequences stand for … in CTCGTCCG…ACCGGAGA
[1] = system: T1, Rep nickase domain of Muscovy duck circovirus
T1 sequence (Rep 1-111, printed without the tag): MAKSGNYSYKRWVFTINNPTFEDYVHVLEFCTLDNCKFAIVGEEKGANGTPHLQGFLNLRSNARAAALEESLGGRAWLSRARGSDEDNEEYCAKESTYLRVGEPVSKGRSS
Description: (§1)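 A pool of 90-nt single-stranded DNAs with seven random bases just before the constant AC of the nick site (name = the seven bases) was cut by 3 µM recombinant His6-SUMO-tagged Rep nickase domain (300 nM DNA, 50 mM HEPES pH 8.0, 50 mM NaCl, 1 mM MnCl2, 1 h, 37 °C, three replicates). Uncut DNA was amplified and sequenced.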

[2] = system: T2, Rep nickase domain of banana bunchy top virus
T2 sequence (Rep 1-94, printed without the tag): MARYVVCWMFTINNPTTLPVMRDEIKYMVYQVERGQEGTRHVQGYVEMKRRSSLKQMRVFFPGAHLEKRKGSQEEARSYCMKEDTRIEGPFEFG
Description: as §1

[3] = system: T3, Rep nickase domain of cabbage leaf curl virus
T3 sequence (Rep 1-116, printed without the tag): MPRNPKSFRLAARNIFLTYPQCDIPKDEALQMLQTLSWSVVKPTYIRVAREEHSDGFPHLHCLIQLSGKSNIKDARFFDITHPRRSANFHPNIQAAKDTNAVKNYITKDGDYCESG
Description: as §1

[4] = system: T4, Rep nickase domain of chickpea chlorotic dwarf virus
T4 sequence (Rep 1-124, printed without the tag): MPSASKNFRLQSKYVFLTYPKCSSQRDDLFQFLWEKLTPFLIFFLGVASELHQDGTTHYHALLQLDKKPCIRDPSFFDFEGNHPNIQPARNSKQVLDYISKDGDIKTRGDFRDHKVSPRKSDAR
Description: as §1

[5] = system: T5, Rep nickase domain of faba bean necrotic yellows virus
T5 sequence (Rep 1-98, printed without the tag): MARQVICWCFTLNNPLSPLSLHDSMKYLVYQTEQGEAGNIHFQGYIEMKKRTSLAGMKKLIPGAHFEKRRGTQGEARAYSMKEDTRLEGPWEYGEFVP
Description: as §1

[6] = system: T6, Rep nickase domain of maize striate mosaic virus
T6 sequence (Rep 1-117, printed without the tag): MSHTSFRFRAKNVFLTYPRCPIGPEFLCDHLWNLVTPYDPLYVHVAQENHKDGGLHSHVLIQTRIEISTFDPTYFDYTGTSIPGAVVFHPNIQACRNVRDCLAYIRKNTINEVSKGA
Description: as §1

[7] = system: T7, Rep nickase domain of porcine circovirus 2
T7 sequence (Rep 2-116, printed without the tag): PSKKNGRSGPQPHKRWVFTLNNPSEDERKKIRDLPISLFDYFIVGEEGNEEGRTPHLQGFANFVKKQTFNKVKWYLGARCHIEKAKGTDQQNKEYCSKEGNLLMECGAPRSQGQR
Description: as §1

[8] = system: T8, Rep nickase domain of tomato golden mosaic virus
T8 sequence (Rep 1-124, printed without the tag): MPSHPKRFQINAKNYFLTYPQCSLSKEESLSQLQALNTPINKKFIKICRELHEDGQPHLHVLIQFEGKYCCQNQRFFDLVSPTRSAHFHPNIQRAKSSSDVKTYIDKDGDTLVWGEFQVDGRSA
Description: as §1

[9] = system: T9, Rep nickase domain of tomato yellow leaf curl virus
T9 sequence (Rep 1-136, printed without the tag): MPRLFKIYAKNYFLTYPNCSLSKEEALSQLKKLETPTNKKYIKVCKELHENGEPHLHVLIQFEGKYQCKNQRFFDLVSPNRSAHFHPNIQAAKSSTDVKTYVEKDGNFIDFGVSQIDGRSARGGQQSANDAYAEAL
Description: as §1

[10] = system: T10, Rep nickase domain of wheat dwarf virus
T10 sequence (Rep 1-137, printed without the tag): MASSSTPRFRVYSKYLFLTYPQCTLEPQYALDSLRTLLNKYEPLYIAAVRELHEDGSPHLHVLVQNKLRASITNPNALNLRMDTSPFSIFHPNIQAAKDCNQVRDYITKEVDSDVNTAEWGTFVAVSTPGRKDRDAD
Description: as §1

Sequence | uncleaved DNA left (log2) [1] | uncleaved DNA left (log2) [2] | uncleaved DNA left (log2) [3] | uncleaved DNA left (log2) [4] | uncleaved DNA left (log2) [5] | uncleaved DNA left (log2) [6] | uncleaved DNA left (log2) [7] | uncleaved DNA left (log2) [8] | uncleaved DNA left (log2) [9] | uncleaved DNA left (log2) [10]
AGCGAAA | -0.0402 | 0.13 | 0.0579 | 0.559 | 0.0608 | 1.13 | 0.00312 | 0.181 | -0.022 | 0.193
CTACACC | 0.000255 | -0.0751 | -0.164 | -1.54 | -0.109 | -0.534 | -0.19 | -0.0181 | -0.0316 | -0.00832
GGGGGAC | -0.0297 | 0.046 | 0.802 | 1.74 | -0.0915 | 2.26 | 0.284 | 0.131 | -0.0306 | 0.0365
TTTGTGC | -0.0127 | -0.167 | -0.954 | -0.513 | -0.103 | -1.15 | 0.0418 | -0.212 | -0.0431 | -0.0909
AAACATT | -0.0574 | 0.0237 | -1.36 | -2.52 | -0.0503 | 0.338 | -0.714 | -0.125 | 0.0993 | -0.238
AGTGGCT | 0.143 | 0.127 | 0.0365 | 0.611 | 0.0973 | 1.41 | -0.145 | 0.277 | 0.0693 | 0.179
CGGCTCA | 0.0327 | 0.071 | 0.0274 | -0.0197 | 0.0414 | 0.55 | 0.0189 | -0.0499 | 0.0996 | 0.0298
TTTACTA | -0.0579 | 0.00827 | 0.0605 | -1.77 | 0.0171 | 0.501 | -0.115 | -0.0307 | 0.0246 | 0.0694
ATTATCG | -0.000625 | -0.084 | -0.908 | -0.143 | -0.117 | -1.22 | 0.0886 | 0.0424 | 0.0465 | -0.109
GTCGCTG | -0.103 | -0.0792 | 0.0736 | 0.726 | -0.15 | 1.47 | -0.0521 | -0.0658 | -0.15 | -0.101
TATGATG | 0.0477 | -0.0375 | -0.189 | -0.295 | -0.0963 | -0.532 | 0.00925 | -0.0493 | -0.106 | -0.0829
TTTAATA | -0.0116 | -0.0278 | 0.0806 | -1.08 | 0.024 | -0.185 | -0.0911 | 0.0208 | 0.0558 | 0.105
GGAGGCG | 0.109 | 0.0954 | -0.49 | 0.725 | 0.301 | -0.12 | 0.218 | 0.0635 | 0.163 | 0.0942
CAAAATC | 0.00344 | 0.0353 | -0.266 | -0.886 | -0.0148 | -0.907 | -0.0121 | 0.0508 | 0.0667 | 0.219
TCATTAG | -0.0014 | -0.0182 | -0.777 | -0.573 | 0.00937 | -1.26 | 0.103 | -0.00543 | 0.0716 | -0.0728
TATTTGG | -0.00439 | -0.0058 | 0.031 | 0.119 | 0.035 | -0.323 | 0.0724 | 0.0114 | -0.00821 | -0.00127
GTTGGTT | -0.0945 | -0.0179 | 0.189 | 0.603 | 0.0183 | 1.44 | 0.0173 | -0.0541 | -0.134 | -0.082
AAGGCTA | 0.0277 | -0.00385 | 0.021 | 0.136 | 0.0182 | 0.799 | 0.068 | 0.102 | -0.122 | 0.000518
TTGGCGT | 0.0104 | -0.13 | -1.07 | -0.305 | -0.0615 | -0.858 | -0.0252 | -0.217 | -0.134 | -0.195
CGCTCGG | -0.0562 | 0.0499 | 0.357 | 0.96 | 0.0524 | 1.34 | 0.0532 | 0.0505 | -0.157 | -0.00508
CGCGAGC | 0.00527 | 0.0776 | 0.111 | 0.553 | 0.0164 | 0.0535 | 0.0083 | 0.0509 | -0.137 | -0.091
TCCTCGA | -0.00518 | -0.0723 | -0.244 | -0.675 | -0.0474 | -1.06 | -0.017 | -0.113 | -0.0894 | 0.0429
AATGAAA | 0.00932 | -0.0692 | 0.0164 | -0.0469 | -0.00328 | -0.198 | 0.00614 | -0.0403 | -0.036 | 0.105
ATCTGAC | 0.09 | 0.0897 | -0.0166 | 0.604 | 0.0837 | 0.352 | 0.187 | 0.0842 | 0.0561 | 0.0783
AGGATTT | 0.11 | 0.0407 | 0.113 | -0.11 | -0.0458 | 1.22 | -0.327 | 0.00568 | -0.0409 | 0.0876
TCGAACG | 0.163 | 0.00901 | -0.681 | -0.602 | -0.096 | -1.16 | 0.254 | -0.0281 | -0.0241 | -0.0369
TTCCGGT | -0.155 | -0.148 | 0.439 | 0.648 | -0.0284 | 1.44 | 0.017 | -0.0425 | -0.127 | -0.13
CTCGGGA | 0.0765 | -0.0274 | 0.231 | 0.647 | -0.00507 | 0.545 | -0.0974 | -0.00381 | -0.0157 | 0.0152
CATTTGG | -0.00376 | -0.104 | -0.793 | -0.75 | -0.041 | -1.1 | 0.146 | -0.047 | -0.0185 | -0.0924
AAAGGCA | -0.0261 | -0.0621 | -0.0514 | -0.0513 | -0.0513 | -0.328 | -0.0105 | 0.00827 | -0.0821 | 0.029
